Measured values reported in patent US20240174760A1 (ZHEJIANG NANOMAB TECHNOLOGY CENTER, published 2024).

T1: biotin-TACI (Acrobiosystems, TAI-H82F6) (human, UniProt O14836 2-166, limits assumed, biotin)
T1 construct: Bought protein; also called human TACI
T1 sequence (looked up): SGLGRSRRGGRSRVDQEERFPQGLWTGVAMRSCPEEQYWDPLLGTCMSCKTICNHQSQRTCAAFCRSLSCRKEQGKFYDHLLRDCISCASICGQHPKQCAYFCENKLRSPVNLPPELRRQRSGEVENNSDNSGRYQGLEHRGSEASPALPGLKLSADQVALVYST

T2: biotin-BAFFR (Acrobiosystems, BAR-H5257) (human, UniProt Q96RJ3 7-71, limits assumed, biotin)
T2 construct: Bought protein; also called human BAFFR
T2 sequence (looked up): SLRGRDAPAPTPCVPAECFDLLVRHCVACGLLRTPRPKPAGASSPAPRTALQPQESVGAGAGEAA

T3: mouse BCMA his tag (Acrobiosystems, BCA-M52H3) (mouse, UniProt O88472 1-49)
T3 construct: Bought protein; also called murine BCMA; not shown: his tag
T3 chain (looked up): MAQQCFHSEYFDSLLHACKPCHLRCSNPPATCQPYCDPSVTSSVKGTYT

T4: human BCMA his tag protein (Acrobiosystems, BCA-H522y) (human, UniProt Q02223 1-54)
T4 construct: Bought protein; also called BCMA/TNFR-His; human recombinant BCMA his tag; not shown: his tag
T4 sequence (looked up): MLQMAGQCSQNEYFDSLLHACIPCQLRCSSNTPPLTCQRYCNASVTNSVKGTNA

T5: human BCMA full-length protein on cells (human, UniProt Q02223 1-184)
T5 construct: whole, on cells; also called CHO-K1/BCMA; BCMA on RPMI8226, Jeko-1, Daudi cells
T5 sequence (looked up): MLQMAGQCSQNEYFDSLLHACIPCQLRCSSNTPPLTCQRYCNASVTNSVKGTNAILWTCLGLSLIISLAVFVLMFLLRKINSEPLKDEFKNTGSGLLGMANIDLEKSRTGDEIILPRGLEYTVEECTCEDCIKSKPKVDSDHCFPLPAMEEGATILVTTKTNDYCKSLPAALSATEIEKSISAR


Assays:
[1] = molecular target: T6, cynomolgus BCMA his tag (Acrobiosystems, BCA-C52H7) (cynomolgus, UniProt A0A2K5UD97 1-53); assay: ELISA on coated cynomolgus BCMA his tag
T6 construct: Bought protein; also called Cyno BCMA his tag; not shown: his tag

[2] = molecular target: T1, biotin-TACI (Acrobiosystems, TAI-H82F6); assay: ELISA, antibody coated, biotin-TACI in solution
[3] = molecular target: T2, biotin-BAFFR (Acrobiosystems, BAR-H5257); assay: ELISA, antibody coated, biotin-BAFFR in solution
[4] = molecular target: T3, mouse BCMA his tag (Acrobiosystems, …); assay: ELISA on coated mouse BCMA his tag (+ = OD450 <= 1.0)
[5] = molecular target: T3, mouse BCMA his tag (Acrobiosystems, …); assay: ELISA on coated mouse BCMA his tag
[6] = molecular target: T4, human BCMA his tag protein …; assay: SPR Biacore T200, antibody captured on protein A, BCMA His analyte, 1:1 fit
[7] = molecular target: T5, human BCMA full-length protein on cells; assay: flow cytometry competition on CHO-K1/BCMA cells; antibody titrated against biotin-APRIL, PE streptavidin readout
[8] = molecular target: T5, human BCMA full-length protein on cells; assay: flow cytometry on CHO-K1/BCMA cells, anti-human IgG PE
[9] = molecular target: T4, human BCMA his tag protein …; assay: comp. ELISA, competitor biotin-BAFF (ligand signal), Ab 78 ug/mL
[10] = molecular target: T4, human BCMA his tag protein …; assay: comp. ELISA, competitor biotin-APRIL (ligand signal), Ab 78 ug/mL
[11] = molecular target: T4, human BCMA his tag protein …; assay: comp. ELISA, competitor biotin-BAFF (ligand signal), Ab 19.5 ug/mL
[12] = molecular target: T4, human BCMA his tag protein …; assay: comp. ELISA, competitor biotin-APRIL (ligand signal), Ab 19.5 ug/mL
[13] = molecular target: T4, human BCMA his tag protein …; assay: comp. ELISA, competitor biotin-BAFF (ligand signal), Ab 1.218 ug/mL
[14] = molecular target: T4, human BCMA his tag protein …; assay: comp. ELISA, competitor biotin-BAFF (ligand signal), Ab 4.875 ug/mL
[15] = molecular target: T4, human BCMA his tag protein …; assay: comp. ELISA, competitor biotin-APRIL (ligand signal), Ab 1.218 ug/mL
[16] = molecular target: T4, human BCMA his tag protein …; assay: comp. ELISA, competitor biotin-APRIL (ligand signal), Ab 4.875 ug/mL

Row | Binder | binding result [1] | binding result [2] | binding result [3] | OD450 [4] [od] | binding result [5] | also measured
1 | NB-265 (Fc fusion, also called NB-265 antibody; VHH-hIgG4) heavy: EVQLVESGGGLVQPGESLRLSCAASGFTFSSSAMSWARQAPGKGLEWVSGIYSDGSTYYADSVKGRFTISRDNAKNTVYLQMNSLKPEDTAVYKCAVGAPLVYASYRPWGQGTLVTVSS[human IgG1 Fc with changes not written out] | no binding (tested: 2 µg/mL) | no binding (tested: 4 µg/mL) | no binding (tested: 4 µg/mL) | ≤ 1 | – | –
2 | NB-34 (Fc fusion, also called NB-34 antibody; VHH-hIgG4) heavy: EVQLVESGGGLVQPGGSLRLSCAASGSIFSIYAMGWYRQAPGKQRELVAAVTSEGGTFYRDSVKGRFTISRDNAKNTVYLQMNSLKPEDTAVYQCNAAPWGSYHPQSDIFSWGQGTQVTVSS[human IgG1 Fc with changes not written out] | no binding (tested: 2 µg/mL) | no binding (tested: 4 µg/mL) | no binding (tested: 4 µg/mL) | ≤ 1 | – | –
3 | NB-170 (Fc fusion, also called NB-170 antibody; VHH-hIgG4) heavy: QVQLVESGGGLVQPGGSLRLSCAASEFIFSISAMSWYRQAPGKVLELVSDITTDGNSFYADSMKGRFTISRDNAKNTMYLQMNILKSEDTAAYDCDVAPWGYHAPEVGSWGQGTLVTVSS[human IgG1 Fc with changes not written out] | no binding (tested: 2 µg/mL) | no binding (tested: 4 µg/mL) | no binding (tested: 4 µg/mL) | – | no binding (tested: 2 µg/mL) | –
4 | NB-217 (Fc fusion, also called NB-217 antibody; VHH-hIgG4) heavy: EVQLVESGGGTVQPGGSLRLSCVASGFTFSPSAMSWVRQAPGKGLEWVSGIYSDGSTRYADSVKGRFTISRDNVKNTVYLQMNSLNPEDTAVYYCAVGIVVPYSEDAWYSTLRGQGTQVTVSS[human IgG1 Fc with changes not written out] | no binding (tested: 2 µg/mL) | no binding (tested: 4 µg/mL) | no binding (tested: 4 µg/mL) | – | no binding (tested: 2 µg/mL) | –
5 | NB-222 (Fc fusion, also called NB-222 antibody; VHH-hIgG4) heavy: QVQLVESGGGLVQPGGSLRLSCAASGSIDRFYAMGWYRQAPGKSRTLVTAITSGGSTYYADSVKGRFTISRDNAKNMLYLQMNSLKPEDTAVYYCNAAPWGDYTAHDFASWGQGTQVTVSS[human IgG1 Fc with changes not written out] | no binding (tested: 2 µg/mL) | no binding (tested: 4 µg/mL) | no binding (tested: 4 µg/mL) | – | no binding (tested: 2 µg/mL) | Kd [6]: 0.00731 nM; koff [6]: 7.02e-05 s⁻¹; kon [6]: 9.61e+06 M⁻¹ s⁻¹; IC50 [7]: 44.7 nM
6 | NB-122 (Fc fusion, also called VHH-hIgG4) heavy: QVQLVESGGGLVQPGGSLRLSCAASGFTFSSSAMSWARQAPGMGLERVSSIYSDGSTYYPDSMKGRFTISRDNAKNTVYLQMNSLKPEDTAVYICAIGAPDPFDYSGWRRNLLGQGTQVTVSS[human IgG1 Fc with changes not written out] | no binding (tested: 2 µg/mL) | no binding (tested: 4 µg/mL) | no binding (tested: 4 µg/mL) | ≤ 1 | – | –
7 | NB-83 (Fc fusion, also called NB-83 antibody; VHH-hIgG4) heavy: QVQLVESGGGLVQPGGSLRLSCAASGSISSIYAMGWYRQAPGKQRELVAAITSDNSAFYRDSVKGRFTISRDNAKNTVYLQMDSLKVEDTAVYDCNVAPWGSYSPGPADIASWGQGTQVTVSS[human IgG1 Fc with changes not written out] | no binding (tested: 2 µg/mL) | no binding (tested: 4 µg/mL) | no binding (tested: 4 µg/mL) | – | no binding (tested: 2 µg/mL) | –

Further lines, with some results ahead:

Row | binding result [1] | binding result [2] | binding result [3] | OD450 [4] [od] | binding result [5] | Binder | also measured
8 | no binding (tested: 2 µg/mL) | no binding (tested: 4 µg/mL) | no binding (tested: 4 µg/mL) | ≤ 1 | – | NB-82 (Fc fusion, also called NB-82 antibody; VHH-hIgG4) heavy: EVQLVESGGGLVQPGGSLRLSCAASGSIFSIYAMGWYRQAPGKPRELVAAVTTEGSTFYRDSVKGRFTISRDNAKNAVYLQMNSLKPEDTAVYQCNAAPWGSYHPQTDIVSWGQGTQVTVSS[human IgG1 Fc with changes not written out] | –
9 | no binding (tested: 2 µg/mL) | no binding (tested: 4 µg/mL) | no binding (tested: 4 µg/mL) | – | no binding (tested: 2 µg/mL) | NB-216 (Fc fusion, also called NB-216 antibody; VHH-hIgG4) heavy: QVQLVESGGGLVQPGGSLRLTCAASGSIFSIYAMGWYRQAPGKQRELVAAVTSAGNTFYRDSVKGRFTISRDNAKSTVYLQMNSLKPEDTAVYDCNSAPWGSYSPGPADVSSWGQGTLVTVSS[human IgG1 Fc with changes not written out] | –
10 | no binding (tested: 2 µg/mL) | no binding (tested: 4 µg/mL) | no binding (tested: 4 µg/mL) | – | no binding (tested: 2 µg/mL) | NB-67 (Fc fusion, also called NB-67 antibody; VHH-hIgG4) heavy: QVQLVESGGGLVQPGGSLRLSCTASGSIFSIYAMGWYRQAPGKPRELVAAITSGSSTFYRDSVKGRFTISRDNAKNTVYLRMNSLKPEDTAVYYCNPAPWGDYTATDFHSWGQGTQVTVSS[human IgG1 Fc with changes not written out] | EC50 [8]: 1.76 nM; OD450 [9]: 0.02 OD450; OD450 [10]: 0.08 OD450; OD450 [11]: 0.03 OD450; OD450 [12]: 0.32 OD450; OD450 [13]: 3.23 OD450; OD450 [14]: 0.82 OD450; OD450 [15]: 2.89 OD450; OD450 [16]: 1.49 OD450; Kd [6]: 0.0495 nM; koff [6]: 0.000296 s⁻¹; kon [6]: 5.98e+06 M⁻¹ s⁻¹; IC50 [7]: 30.3 nM
11 | no binding (tested: 2 µg/mL) | no binding (tested: 4 µg/mL) | no binding (tested: 4 µg/mL) | ≤ 1 | – | NB-192 (Fc fusion, also called VHH-hIgG4) heavy: QVQLVESGGGLVQPGGSLRLSCAASGFTFSSSAMSWARQAPGKGLERVSSIYSDGSTYYSDSMKGRFTISRDNAKNTVYLQMNSLKPEDTAVYYCAIGAPDPFDYSGWRRHLLGQGTLVTVSS[human IgG1 Fc with changes not written out] | –
